Where “and” joins values, the source holds several entries; their conditions need not be identical. Equal values may be shown once. The inconclusive results got no clear call from the source; some entries with a clear call stand among them for comparison. For part of these data: Where the call is inconclusive, the potency comes from a doubtful curve fit. Calls of active or inactive are those of the source. Unless noted, calls come from the whole dose curve; as a rule, active = well fitted curve in the direction sought with a large enough effect in the repeat runs; inconclusive = weak or mixed curves; inactive = no such curve, though single readings can be large; an effect the other way counts as inactive or inconclusive.
How the values were obtained:
[1] = target: Nuclear receptor subfamily 1 group I member 3 (Homo sapiens) (UniProt Q14994); assay: qHTS assay to identify small molecule antagonists of the constitutive androstane receptor (CAR) signaling pathway (AID 1224838);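 note: HepG2 cells stably expressing hCAR with CYP2B6 luciferase reporter stimulated by CITCO; nearly all actives have a fitted effect of over 40% in size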; note: potency is the fitted concentration of half-maximal effect
Procedure, shortened: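 Antagonism measured as luciferase signal (ONE-Glo, 30 min, room temperature) in CAR-stimulated cells: HepG2-CYP2B6-hCAR double-stable line exposed 24 hr at 37 C to compound in a 15-point series plus 50 nM CITCO.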

[2] = qHTS assay to identify small molecule antagonists of the estrogen related receptor signaling pathway with the pleiotropic PPARgamma coactivator (PGC) from Tox21 10K library (AID 1224841; call rule not given here; note: potency is the fitted concentration of half-maximal effect; actives are mostly falling curves and most rising ones were filed inactive; nearly all actives have a fitted effect of over 50% in size)
Procedure, shortened: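 Luminescence (One-Glo, 30 min at room temperature) after 18 h compound treatment at 37 C of PGC/ERR reporter cells plated at 2,000 cells/well and settled 6 h beforehand.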

[3] = qHTS assay to identify small molecule agonists of the hypoxia (HIF-1) signaling pathway - cell viability counter screen (AID 1224844; calls by dose curve; note: nearly all actives have a fitted effect of over 50% in size; note: potency is the fitted concentration of half-maximal effect)
Procedure, shortened: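 Cytotoxicity measured by CellTiter-Glo ATP luminescence in the wells also read for beta-lactamase signal. Cells were HRE-bla ME-180 (2,000/well, 0.5% dialyzed FBS), exposed to compounds for 17 h at 37C.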

[4] = qHTS assay to identify small molecule agonists of H2AX (AID 1224845; active = well fitted activation curve with a large enough effect in the signal ratio in the repeat runs, not every such curve was filed as active; inconclusive = weak or mixed curves; the % refers to the signal ratio; note: potency is the fitted concentration of half-maximal effect; for activation (H2AX phosphorylation): % is set by controls: 0 for no effect and ±100 for the full control effect); conditions: CHO-K1 phospho-H2AX Ser139 HTRF, 3 h; activation (H2AX phosphorylation): at 154 µM (top of the series) unless noted
Procedure, shortened: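 Phospho-H2AX Ser139 measured by HTRF (ex 320 nm; em 665 and 620 nm) after 24 hr antibody incubation. Compounds, 15 concentrations, 0.76% DMSO, were applied to CHO-K1 cells for 3hr at 37C before lysis.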

[5] = qHTS assay to identify small molecule agonists of the hypoxia (HIF-1) signaling pathway (AID 1224846; active = well fitted activation curve with a large enough effect in the signal ratio in the repeat runs, not every such curve was filed as active; inconclusive = weak or mixed curves; the % refers to the signal ratio; note: potency is the fitted concentration of half-maximal effect; for activation: % is set by controls: 0 for no effect and ±100 for the full control effect); conditions: HRE-bla ME-180 cells, beta-lactamase ratio, 17 h; activation: at 76.8 µM (top of the series) unless noted
Procedure, shortened: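 Compounds added to ME-180 cells carrying hypoxia-response-element beta-lactamase reporter (0.5% dialyzed FBS, 5 h preplating), 17 h at 37C; agonist activity detected by CCF4-AM B/G FRET read-out.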

[6] = qHTS assay to identify small molecule antagonists of the estrogen related receptor (ERR) signaling pathway from Tox21 library (AID 1224848); note: potency is the fitted concentration of half-maximal effect; nearly all actives have a fitted effect of over 50% in size
Procedure, shortened: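 Luciferase luminescence (ONE-Glo, 30 min room temperature) was the read-out. Cells of the NTP-supplied ERR line, 2,000 per well, were given 6 h at 37 C before compound addition in DMSO and 18 h exposure at 37 C.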

[7] = target: Nuclear receptor subfamily 1 group I member 3 (Homo sapiens) (UniProt Q14994); assay: qHTS assay to identify small molecule agonists of the constitutive androstane receptor (CAR) signaling pathway (AID 1224839); note: nearly all actives have a fitted effect of over 15% in size; note: potency is the fitted concentration of half-maximal effect;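 for activation: HepG2 cells stably carrying human CAR and a CYP2B6 luciferase reporter; % is set by controls: 0 for no effect and ±100 for the full control effect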
Procedure, shortened: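 In this screen, CAR-driven CYP2B6 promoter activity is measured by luminescence in HepG2-CYP2B6-hCAR cells after 24 h with test compounds and 0.75 uM PK11195 (final concentration).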

[8] = target: Thyrotropin receptor (Homo sapiens) (UniProt P16473); assay: qHTS assay to identify small molecule agonists of the thyroid stimulating hormone receptor (TSHR) signaling pathway (AID 1224843; calls by dose curve; note: nearly all actives have a fitted effect of over 45% in size; note: potency is the fitted concentration of half-maximal effect; for activation: % is set by controls: 0 for no effect and ±100 for the full control effect); conditions: TSHR-HEK293 cells, cAMP HTRF, agonist mode, 30 min; activation: at 92.4 µM (top of the series) unless noted
Procedure, shortened: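 Agonist activity read as cAMP rise via d2/cryptate HTRF competition, 1 h room-temperature detection, in HEK293 cells expressing TSHR. Fifteen-point titrations, each run in triplicate, with a 30 min room-temperature incubation beforehand.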

[9] = qHTS RealTime-Glo MT Cell Viability Assay in HEK293 cells - 32 hour (AID 1224868); note: nearly all actives have a fitted effect of over 50% in size; note: potency is the fitted concentration of half-maximal effect
Procedure, shortened: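 Viability tracked continuously by luminescence as live cells reduce a prosubstrate for NanoLuc; HEK293 cells preincubated 5 h, compound-treated at 37 C, and read at 0, 8, 16, 24, 32 and 40 h.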

[10] = qHTS assay to identify small molecule antagonists of the constitutive androstane receptor (CAR) signaling pathway - cell viability counter screen (AID 1224837); note: % is set by controls: 0 for no effect and ±100 for the full control effect; nearly all actives have a fitted effect of over 45% in size
Procedure, shortened: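 Cytotoxicity counter-screen: CellTiter-Fluor fluorescence after 23 h compound exposure (15-point qHTS) in double-stable HepG2-CYP2B6-hCAR cells, with 50 nM CITCO added.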

[11] = qHTS assay to identify small molecule agonists of the estrogen related receptor (ERR) signaling pathway from Tox21 library (AID 1224849; calls by dose curve; note: % is set by controls: 0 for no effect and ±100 for the full control effect; nearly all actives have a fitted effect of over 15% in size); conditions: ERR reporter cell line, ONE-Glo luciferase, 18 h; at 92.4 µM (top of the series)
Procedure, shortened: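 Luminescent agonist read-out (One-Glo, 30-minute room-temperature incubation) following 18-hour compound treatment at 37 C of the ERR cell line, which had been plated 6 hours before dosing.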

[12] = qHTS assay to identify small molecule antagonists of the estrogen related receptor signaling pathway with the pleiotropic PPARgamma coactivator (PGC) from Tox21 10K library - cell viability counter screen (AID 1224840; active = well fitted cell-killing curve with a large enough effect in the repeat runs, not every such curve was filed as active; inconclusive = weak or mixed curves, or effect the other way; inactive = no such curve, though single readings can be large or run the other way; note: potency is the fitted concentration of half-maximal effect; nearly all actives have a fitted effect of over 40% in size)
Procedure, shortened: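 Counter-screen for cytotoxicity: after 17.5 h compound exposure at 37 C, CellTiter-Fluor reagent added to PGC/ERR cells for 30 min and fluorescence read. Cells were seeded at 2,000 per well 6 h before dosing.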

[13] = qHTS assay to identify small molecule agonists of H2AX - cell viability counter screen (AID 1224847; calls by dose curve; note: nearly all actives have a fitted effect of over 30% in size; note: potency is the fitted concentration of half-maximal effect)
Procedure, shortened: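 Read-out: CellTiter-Glo luminescence, 30 min RT. Cells: wild-type CHO-K1, 1000/well, 10% FBS, plated overnight at 37C. Treatment: 15 concentrations, 3 hr, 37C, 0.76% DMSO.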
Tags give direction and shape of the fitted curve or compound fluorescence and quenching.

Chain of UniProt Q14994 (Q14994 whole entry, looked up): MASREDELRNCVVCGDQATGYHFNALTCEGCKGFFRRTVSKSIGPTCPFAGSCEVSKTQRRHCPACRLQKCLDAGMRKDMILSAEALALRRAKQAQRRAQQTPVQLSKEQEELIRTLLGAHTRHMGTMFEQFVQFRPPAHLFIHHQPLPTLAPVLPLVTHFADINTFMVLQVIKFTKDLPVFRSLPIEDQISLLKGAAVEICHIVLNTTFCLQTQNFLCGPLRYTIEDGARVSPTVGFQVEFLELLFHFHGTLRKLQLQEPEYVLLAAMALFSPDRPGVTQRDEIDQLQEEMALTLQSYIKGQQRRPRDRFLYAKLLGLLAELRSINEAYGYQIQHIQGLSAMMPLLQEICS
Chain of UniProt P16473 (P16473 whole entry, looked up): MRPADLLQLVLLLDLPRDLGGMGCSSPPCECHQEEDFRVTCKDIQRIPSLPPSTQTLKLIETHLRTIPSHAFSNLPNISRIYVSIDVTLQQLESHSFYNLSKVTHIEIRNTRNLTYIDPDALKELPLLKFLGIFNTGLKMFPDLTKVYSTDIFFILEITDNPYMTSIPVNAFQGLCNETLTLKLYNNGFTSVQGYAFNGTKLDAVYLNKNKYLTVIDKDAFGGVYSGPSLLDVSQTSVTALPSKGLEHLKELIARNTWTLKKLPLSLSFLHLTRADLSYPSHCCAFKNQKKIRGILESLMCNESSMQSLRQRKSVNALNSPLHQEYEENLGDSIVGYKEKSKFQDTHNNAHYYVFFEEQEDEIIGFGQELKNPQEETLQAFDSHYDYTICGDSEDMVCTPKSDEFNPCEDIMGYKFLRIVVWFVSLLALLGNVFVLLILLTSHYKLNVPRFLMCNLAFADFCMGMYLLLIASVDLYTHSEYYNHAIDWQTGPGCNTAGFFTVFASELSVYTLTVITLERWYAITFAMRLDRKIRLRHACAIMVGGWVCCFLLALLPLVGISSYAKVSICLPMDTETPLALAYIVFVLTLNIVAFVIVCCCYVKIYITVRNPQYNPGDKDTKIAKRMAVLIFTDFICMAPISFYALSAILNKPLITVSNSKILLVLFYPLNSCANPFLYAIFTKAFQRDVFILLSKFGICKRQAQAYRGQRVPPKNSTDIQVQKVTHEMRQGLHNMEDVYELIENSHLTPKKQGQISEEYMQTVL

CCO[C@H](Cc1ccc(OCCc2ccc(OS(C)(=O)=O)cc2)cc1)C(=O)O
Potency [1]: inactive

CO[Si](OC)(c1ccccc1)c1ccccc1
Potency [1]: inconclusive: 68.6 µM [inhibitor, single point]
Potency [2]: inconclusive: 61.1 µM
Potency [3]: inconclusive: 54.9 µM [cytotoxic, single point]
Potency [4]: inconclusive: 113 µM [activator]
Potency [5]: inconclusive: 54.9 µM [single point]
Potency [6]: inconclusive: 68.6 µM [inhibitor]

CN(C)C(=O)Nc1ccc(Cl)c(Cl)c1
Potency [1]: inactive
Potency [7]: inconclusive: 60.9 µM [activator, partial curve] and inconclusive: 61.1 µM [activator, partial curve] and inconclusive: 21.1 µM [activator, partial curve]
Potency [8]: inactive
Potency [6]: inconclusive: 68.4 µM [inhibitor, partial curve, poor fit]
Potency [9]: inconclusive: 24.5 µM [cytotoxic, partial curve, poor fit]

CCC1(c2ccccc2)C(=O)NCNC1=O
Potency [1]: inconclusive: 13.3 µM [inhibitor, partial curve]

CCC(C)c1cc(C(C)(C)C)c(O)c(C(C)(C)C)c1 (stereo not given)
Potency [1]: inconclusive: 6 µM [inhibitor, full curve]

CC(=O)[O][Al]
Potency [10]: inactive
activity change, positive = activation [11]: inactive: 0.0434%

COc1cc(OC)c(C(=O)CCCN2CCCC2)c(OC)c1
Potency [1]: inconclusive: 29.8 µM [inhibitor, partial curve, poor fit]

CC(=O)OCC(=O)[C@@]12N=C(C)O[C@@H]1C[C@H]1[C@@H]3CCC4=CC(=O)C=C[C@]4(C)[C@H]3[C@@H](O)C[C@@]12C
Potency [10]: inactive
Potency [8]: inactive
Potency [5]: inconclusive: 1.95 µM [rising, partial curve, poor fit]

Nc1ccc(N)c2c1C(=O)c1ccccc1C2=O
Potency [1]: inconclusive: 48.6 µM [inhibitor, partial curve, poor fit]
Potency [12]: active: 19.3 µM
Potency [2]: active: 24.3 µM
Potency [8]: inconclusive: 30.6 µM [falling, partial curve]
Potency [4]: inconclusive: 11.3 µM [falling, full curve]
Potency [6]: active: 43.3 µM
Potency [9]: inconclusive: 15.5 µM [cytotoxic, full curve]

CC1CCC2CC1C2(C)C (stereo not given)
Potency [1]: inconclusive: 23.4 µM [inhibitor, partial curve, poor fit]

Cc1cc(O)c(Cl)cc1C
Potency [1]: inactive

CCOC(=O)CC(=O)c1cc(F)c(Cl)nc1Cl
Potency [10]: inactive
Potency [9]: inconclusive: 50.2 µM [rising, partial curve]

CCN[C@H]1C[C@H](C)S(=O)(=O)c2sc(S(N)(=O)=O)cc21
Potency [1]: inconclusive: 2.98 µM [inhibitor, full curve]

Cc1nc2sccn2c(=O)c1CCN1CCC(=C(c2ccc(F)cc2)c2ccc(F)cc2)CC1
Potency [1]: inconclusive: 13.3 µM [inhibitor, partial curve]
Potency [2]: inconclusive: 18.8 µM [falling, partial curve]
activation [8]: inconclusive: 32.3% [at 42.5 µM]
Potency [3]: inconclusive: 30.1 µM [cytotoxic, single point]
Potency [4]: inactive
Potency [13]: inconclusive: 61.9 µM [cytotoxic, single point]
Potency [9]: active: 3.38 µM

CCCCCCCN
Potency [1]: inactive

Nc1ccccc1S(=O)(=O)O
Potency [1]: inactive

O=C(NN1CCCC1)NS(=O)(=O)c1ccc(Cl)cc1
Potency [1]: inconclusive: 26.6 µM [inhibitor, partial curve, poor fit]

CC(=O)CC(c1ccc([N+](=O)[O-])cc1)c1c(O)c2ccccc2oc1=O (stereo not given)
Potency [1]: inactive

CCCCCCCCN(C)C
Potency [10]: inactive
Potency [9]: inactive

O=S(=O)(O)CC(O)CCl (stereo not given)
Potency [10]: inactive
Potency [3]: inactive
Potency [4]: inactive

C[C@H]1O[C@@H](n2cc(F)c(=O)[nH]c2=O)[C@H](O)[C@@H]1O
Potency [1]: inconclusive: 9.44 µM [inhibitor, full curve]

F[Si-2](F)(F)(F)(F)F
Potency [1]: inconclusive: 61.1 µM [inhibitor, partial curve, poor fit]
activation [8]: inconclusive: 3.14%

CC(=O)OCC(=O)[C@@]1(O)CC[C@H]2[C@@H]3CCC4=CC(=O)C=C[C@]4(C)[C@@]3(F)[C@@H](O)C[C@@]21C
Potency [1]: inconclusive: 2.98 µM [inhibitor, full curve]
Potency [5]: inactive

CC(=O)C(=O)O
Potency [7]: inactive

CCOC(=O)CC(CC(=O)OCC)(OC(C)=O)C(=O)OCC
Potency [7]: inconclusive: 54.5 µM [activator, partial curve]

CCCCC(=O)O
Potency [1]: inconclusive: 30.9 µM [inhibitor, partial curve, poor fit]
Potency [3]: inconclusive: 54.9 µM [rising, single point]
Potency [13]: inactive

COC(=O)c1ccc(NC(C)=O)cc1OC
Potency [1]: inactive
Potency [8]: inactive

Reference: PubChem BioAssay (Tox21)
